Reference: PMC4049815
Results are given in words; binding and its absence hold for the method and conditions named. In cells and extracts the contact can be indirect. Some entries that bind do so weakly or less than the wild type. Sequences can lack the tags named with a protein.

Chains of the proteins cited; added tags and fusions are not shown.
UniProt P43355: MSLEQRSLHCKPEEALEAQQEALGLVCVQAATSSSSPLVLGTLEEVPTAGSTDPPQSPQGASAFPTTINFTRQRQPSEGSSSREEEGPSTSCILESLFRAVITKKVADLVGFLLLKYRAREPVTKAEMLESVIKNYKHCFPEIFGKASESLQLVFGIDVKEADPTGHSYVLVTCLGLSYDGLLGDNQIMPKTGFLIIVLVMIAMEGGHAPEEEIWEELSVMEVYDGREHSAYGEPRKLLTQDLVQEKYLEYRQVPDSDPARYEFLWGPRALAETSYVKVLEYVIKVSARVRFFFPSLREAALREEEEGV
UniProt O88907: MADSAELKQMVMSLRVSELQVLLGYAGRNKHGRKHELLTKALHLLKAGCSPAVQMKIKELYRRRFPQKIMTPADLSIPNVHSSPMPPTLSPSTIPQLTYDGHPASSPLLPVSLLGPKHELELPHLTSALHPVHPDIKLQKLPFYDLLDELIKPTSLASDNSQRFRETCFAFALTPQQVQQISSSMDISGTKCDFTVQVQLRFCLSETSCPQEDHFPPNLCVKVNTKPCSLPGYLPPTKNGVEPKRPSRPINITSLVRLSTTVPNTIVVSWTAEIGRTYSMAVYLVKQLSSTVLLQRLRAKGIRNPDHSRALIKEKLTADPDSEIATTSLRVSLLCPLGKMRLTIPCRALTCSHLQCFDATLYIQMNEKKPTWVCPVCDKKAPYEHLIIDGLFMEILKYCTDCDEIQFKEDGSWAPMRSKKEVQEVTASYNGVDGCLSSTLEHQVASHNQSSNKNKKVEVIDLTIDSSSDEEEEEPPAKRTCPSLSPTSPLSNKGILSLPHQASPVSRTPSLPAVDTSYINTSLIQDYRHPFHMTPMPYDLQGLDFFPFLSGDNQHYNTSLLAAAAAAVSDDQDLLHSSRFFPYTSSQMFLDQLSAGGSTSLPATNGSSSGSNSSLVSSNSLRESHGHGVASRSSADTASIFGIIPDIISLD

T1: FLAG-tagged MAGEL2 (mouse) (UniProt Q9QZ04)
T1 sequence: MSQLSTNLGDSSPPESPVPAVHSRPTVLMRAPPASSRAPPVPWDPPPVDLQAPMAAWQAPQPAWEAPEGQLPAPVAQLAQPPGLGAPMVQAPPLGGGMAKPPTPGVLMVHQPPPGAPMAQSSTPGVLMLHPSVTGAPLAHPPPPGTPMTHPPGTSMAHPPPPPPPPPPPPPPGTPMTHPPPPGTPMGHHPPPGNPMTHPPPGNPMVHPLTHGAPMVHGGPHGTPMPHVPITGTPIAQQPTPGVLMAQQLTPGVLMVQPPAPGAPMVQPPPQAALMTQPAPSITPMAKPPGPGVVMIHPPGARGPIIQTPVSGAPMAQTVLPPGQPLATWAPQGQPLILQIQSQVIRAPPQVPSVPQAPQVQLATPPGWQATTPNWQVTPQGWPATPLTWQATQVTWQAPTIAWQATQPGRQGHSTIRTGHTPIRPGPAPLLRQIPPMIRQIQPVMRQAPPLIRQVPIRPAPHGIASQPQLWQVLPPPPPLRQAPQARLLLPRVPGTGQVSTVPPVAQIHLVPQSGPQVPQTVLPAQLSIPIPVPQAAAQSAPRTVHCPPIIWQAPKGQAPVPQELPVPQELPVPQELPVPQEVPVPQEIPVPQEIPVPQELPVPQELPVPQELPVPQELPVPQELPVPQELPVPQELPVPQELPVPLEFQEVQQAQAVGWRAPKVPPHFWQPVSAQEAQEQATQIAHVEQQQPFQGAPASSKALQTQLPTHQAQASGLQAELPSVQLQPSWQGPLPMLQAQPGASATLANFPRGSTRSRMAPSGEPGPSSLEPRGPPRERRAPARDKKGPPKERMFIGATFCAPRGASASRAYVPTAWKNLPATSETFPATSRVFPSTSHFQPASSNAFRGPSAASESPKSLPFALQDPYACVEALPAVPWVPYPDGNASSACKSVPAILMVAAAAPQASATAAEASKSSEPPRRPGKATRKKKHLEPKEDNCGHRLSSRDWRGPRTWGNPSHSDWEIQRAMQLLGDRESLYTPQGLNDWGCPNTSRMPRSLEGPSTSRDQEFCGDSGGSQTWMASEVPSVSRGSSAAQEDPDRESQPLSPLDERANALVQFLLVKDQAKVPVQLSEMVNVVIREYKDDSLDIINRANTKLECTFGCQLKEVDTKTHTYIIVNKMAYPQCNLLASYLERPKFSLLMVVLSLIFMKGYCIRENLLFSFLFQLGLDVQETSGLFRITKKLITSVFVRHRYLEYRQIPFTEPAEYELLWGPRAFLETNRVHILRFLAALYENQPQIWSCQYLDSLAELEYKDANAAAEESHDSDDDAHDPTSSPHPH

T2: FLAG-tagged MAGED1 (mouse) (UniProt Q9QYH6)
T2 sequence: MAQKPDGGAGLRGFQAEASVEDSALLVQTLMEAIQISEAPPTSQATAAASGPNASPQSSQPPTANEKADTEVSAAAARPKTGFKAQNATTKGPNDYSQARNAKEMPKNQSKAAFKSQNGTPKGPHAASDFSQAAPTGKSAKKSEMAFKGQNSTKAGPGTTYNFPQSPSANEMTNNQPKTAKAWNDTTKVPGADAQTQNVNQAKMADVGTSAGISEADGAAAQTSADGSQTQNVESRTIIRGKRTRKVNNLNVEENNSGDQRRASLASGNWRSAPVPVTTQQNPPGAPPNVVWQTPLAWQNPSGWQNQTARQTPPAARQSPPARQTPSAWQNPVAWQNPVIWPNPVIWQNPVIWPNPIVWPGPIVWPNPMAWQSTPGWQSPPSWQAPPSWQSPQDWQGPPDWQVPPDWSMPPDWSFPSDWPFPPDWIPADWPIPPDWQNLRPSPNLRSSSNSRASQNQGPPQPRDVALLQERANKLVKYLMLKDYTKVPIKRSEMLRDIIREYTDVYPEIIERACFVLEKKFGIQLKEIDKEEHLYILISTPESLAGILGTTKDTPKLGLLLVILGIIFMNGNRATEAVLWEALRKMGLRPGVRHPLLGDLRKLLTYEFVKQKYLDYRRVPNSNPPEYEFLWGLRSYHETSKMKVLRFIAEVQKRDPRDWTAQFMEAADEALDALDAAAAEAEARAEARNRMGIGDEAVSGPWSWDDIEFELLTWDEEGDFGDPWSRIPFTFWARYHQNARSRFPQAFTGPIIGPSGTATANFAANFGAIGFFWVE

T3: FLAG-tagged necdin (full-length) (mouse) (UniProt P25233)
T3 sequence: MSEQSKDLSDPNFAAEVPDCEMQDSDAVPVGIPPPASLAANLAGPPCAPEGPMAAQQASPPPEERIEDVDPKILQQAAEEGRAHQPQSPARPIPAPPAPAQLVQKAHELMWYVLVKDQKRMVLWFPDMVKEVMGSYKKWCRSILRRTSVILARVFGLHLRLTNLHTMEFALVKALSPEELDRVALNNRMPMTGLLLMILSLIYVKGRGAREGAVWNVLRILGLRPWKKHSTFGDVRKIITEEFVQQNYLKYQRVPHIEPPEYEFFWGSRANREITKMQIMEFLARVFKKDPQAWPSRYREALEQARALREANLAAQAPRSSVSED

B1: Myc-tagged Nsmce1 (enzyme, UniProt Q9D720 1-266)
chain: MQGSTRRAGAMTDVHRRFLQLLMTHGVLEEWEVRRLQNHCYQVHDRNATVDKLEDFINNINSVLESLYIEIKKGVTEDDGRPIYALVNLATTSVSKMATDFAENELDLFRKALELIVDSETGFASSTNILNLVDQLKGKKMRKKEAEQVLQKFVQSKWLIEKEGEFTLHGRAILEMEQFIRESYPDSVKMCNICHGLLIQGQSCETCGIRMHLPCVAKYFQSIPEPHCPHCNDYWPHDIPEVYNPEKEREAGISKSSRKSLRTRQH
B2: Myc-tagged Nsmce2 (enzyme, UniProt Q91VT1-1 1-247)
chain: MPGRSSTSSGSTRYISFSGIESALSSLKNFQSCISSGMDTVSSVALDLVETQTEVSSEYSMDKAMVEFAKMDRELSHYVKAVQSTINHVKEERPEKVPDLKLLVEKKFLALQDKNSDADFKENEKFVQFKQQLRELKKQYGIHADRENDLTEGVDEDMIVTQSQTNFICPITQLEMKKPVKNKMCGHTYEEEAIVRMIESKHKRKKKACCPKIGCSHTDMRMSDLIPDEALRRAIESHNKKKKRHSE
B3: Myc-tagged Cbx4 (enzyme, UniProt O55187-1 1-551)
chain: MELPAVGEHVFAVESIEKKRIRKGRVEYLVKWRGWSPKYNTWEPEENILDPRLLIAFQNRERQEQLMGYRKRGPKPKPLVVQVPTFARRSNVLTGLQDSSADNRAKLELGTQGKGQGHQYELNSKKHHQYQPHSKERSGKPPPPGKSGKYYYQLNSKKHHPYQPDPKMYDLQYQGGHKEAPSPTCPDLGTKSHPPDKWAHGAAAKGYLGAVKPLGGGAGAPGKGSEKGPPNGMTPAPKEAVTGNGIGGKMKIVKNKNKNGRIVIVMSKYMENGMQAVKIKSGEAAEGEARSPSHKKRAAEERHPQGDRTFKKAAGASEEKKAEVPCKRREEEALVSGDAQPQDLGSRKLSPTKEAFGEQPLQLTTKPDLLAWDPARSSHPPAHHHHHHHHHHHHHTVGLNLSHARKRCLSETHGEREPCKKRLTARSISTPTCLGGSPVSEHPANVSPTAASLPQPEVILLDSDLDEPIDLRCVKMRSDAGEPPSTLQVKPEAPAVAAVVAPAPASEKPPAEAQEEPVEPLSEFKPFFGNIIITDVTANCLTVTFKEYVTV

Tests used:
Assay in all cases: co-IP; HEK293A cells co-transfected with FLAG-tagged MAGE proteins and Myc-tagged E3 ligases; lysates (10 mM Tris-HCl pH 8.0, 150 mM NaCl, 1 mM EDTA, 1% IGEPAL CA-630, 10% glycerol) precipitated with anti-FLAG antibody at 4°C for 2 hrs, blotted with anti-Myc
[1] = target: T1, FLAG-tagged MAGEL2 (mouse)
[2] = target: T2, FLAG-tagged MAGED1 (mouse)
[3] = target: FLAG-tagged MAGEA1 (human) (UniProt P43355)
[4] = target: T3, FLAG-tagged necdin (full-length) (mouse)

| Molecule | binding [1] | binding [2] | binding [3] | binding [4] |
| --- | --- | --- | --- | --- |
| Myc-tagged PIAS1 (full-length) (from UniProt O88907 1-651) (enzyme) | binds | binds | binds | binds |
| B1 | no binding | no binding | binds | no binding |
| B2 | no binding | no binding | binds | no binding |
| B3 | no binding | no binding | binds | no binding |
